Data on 75 sequences can be found in the supplement of paper PMC12067230.

Single values of this set are uncertain.
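Note: [psi-pin-] Saccharomyces cerevisiae expressing SupN fusions, induced by 100 µM Cu2SO4, selected 7 d at 30 °C without adenine and uracil, scored by deep sequencing of output versus input.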

The first data set in a line: amyloid nucleation score relative to library mode (yeast Sup35 reporter selection) (log enrichment difference); higher = more amyloid nucleation; sequences are the first 22 residues of the Bri2 peptide extended by up to 12 random residues. Particulars: random library (experiment): 1;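 active = nucleation score significantly above 0 at FDR 0.05; inactive = not significantly above 0 or absent from output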.
EASNCFAIRHFENKFAVETLICFNSCQQEWLDES had an amyloid nucleation score of 4.78.
Still for that read-out and setting: the figure for EASNCFAIRHFENKFAVETLICFNSECMIGDLFR is 7.96; for EASNCFAIRHFENKFAVETLICFNSNYWSGSWRA it is 5.77; for EASNCFAIRHFENKFAVETLICFNVFISHSTMVS it is “inactive”.
EASNCFAIRHFENKFAVETLICFNVPRIRHFTPS: the amyloid nucleation score amounted to 4.71.
For EASNCFAIRHFENKFAVETLICFNYETKNWRMRR, the amyloid nucleation score was 3.65.
On the same count and under the same terms, the figure for EASNCFAIRHFENKFAVETLICFP is 1.38.
For the sequence EASNCFAIRHFENKFAVETLICFPCCFFMVFLYR, the amyloid nucleation score entry was “inactive”.
With EASNCFAIRHFENKFAVETLICFPCT, the amyloid nucleation score is 5.27.
On to EASNCFAIRHFENKFAVETLICFPKVIHEYVTLR, for which the amyloid nucleation score entry was “inactive”.
EASNCFAIRHFENKFAVETLICFPLKGGWKVCPG gave an amyloid nucleation score of 5.47.
For the sequence EASNCFAIRHFENKFAVETLICFPMPQYCSLSAV, the amyloid nucleation score entry was “inactive”.
Turning to EASNCFAIRHFENKFAVETLICFPNRLRYARLAL, the amyloid nucleation score entry was “inactive”.
Consider EASNCFAIRHFENKFAVETLICFPREYSSIVVFS, for which the amyloid nucleation score entry was “inactive”.
As for EASNCFAIRHFENKFAVETLICFPSDIRFWIRLA, the amyloid nucleation score result was “inactive”.
The same measure, in the same setting: for EASNCFAIRHFENKFAVETLICFPTWRVMNEIVS the value was “inactive”; for EASNCFAIRHFENKFAVETLICFQETVRNWDIVL, 2.39.
For EASNCFAIRHFENKFAVETLICFQLTHLFKFVTS, the amyloid nucleation score entry is “inactive”.
For the sequence EASNCFAIRHFENKFAVETLICFQNHHYLPWG, the amyloid nucleation score is 4.77.
On the same count and under the same terms, the figure for EASNCFAIRHFENKFAVETLICFQRMLQFSLKYA is -0.029; for EASNCFAIRHFENKFAVETLICFQRQGTLVRVSG it is “inactive”; for EASNCFAIRHFENKFAVETLICFQRRHL it is 1.29.
The same measure, in the same setting: the figure for EASNCFAIRHFENKFAVETLICFQRSE is 1.75; for EASNCFAIRHFENKFAVETLICFQSDAEKCGG it is “inactive”.
The same measure, in the same setting: the figure for EASNCFAIRHFENKFAVETLICFQSFDCQLVWDY is 3.3; for EASNCFAIRHFENKFAVETLICFQVNAYNATIYG it is 8.21.
Sequence EASNCFAIRHFENKFAVETLICFRCVVEPLTMGC returned an amyloid nucleation score of 2.91.
As for EASNCFAIRHFENKFAVETLICFREAWSCALRGL, the amyloid nucleation score result is “inactive”.
Still for that read-out and setting: the figure for EASNCFAIRHFENKFAVETLICFRGARNMNQPNT is 3.02; for EASNCFAIRHFENKFAVETLICFRHDVLHRRWAE it is 3.89; for EASNCFAIRHFENKFAVETLICFRHMLYFREITP it is “inactive”.
Still for that read-out and setting: for EASNCFAIRHFENKFAVETLICFRHVWCHALILA the value was “inactive”; for EASNCFAIRHFENKFAVETLICFRIGCHVSRTAV, 3.15; for EASNCFAIRHFENKFAVETLICFRIGCTVVYWAV, “inactive”.

Staying with this data set, now noted: random library (experiment): 2.
As for EASNCFAIRHFENKFAVETLICFNRSPSLRYQVL, the amyloid nucleation score entry was “inactive”.
Still for that read-out and setting: for EASNCFAIRHFENKFAVETLICFNRVNCFRYVAW the value was “inactive”.
The sequence EASNCFAIRHFENKFAVETLICFNSGYTRGSQNR gave an amyloid nucleation score of 4.78.
Regarding EASNCFAIRHFENKFAVETLICFNSLDKLIGSSW, the amyloid nucleation score amounted to 2.38.
With EASNCFAIRHFENKFAVETLICFNSQCQEYEYYG, the amyloid nucleation score turned out to be 8.22.
Take EASNCFAIRHFENKFAVETLICFNVGIWNVCMPN: the amyloid nucleation score worked out at 8.08.
The same measure, in the same setting: the figure for EASNCFAIRHFENKFAVETLICFNVPYSKTSSGV is 2.47.
Still for that read-out and setting: the figure for EASNCFAIRHFENKFAVETLICFNWLYPIPSR is 5.22; for EASNCFAIRHFENKFAVETLICFPCSILLGLSSY it is 4.65.
Still for that read-out and setting: the figure for EASNCFAIRHFENKFAVETLICFPEKLSQWGVVN is -0.626; for EASNCFAIRHFENKFAVETLICFPFCFIYASVGR it is 6.03; for EASNCFAIRHFENKFAVETLICFPGPGNTIRCHI it is “inactive”.
With EASNCFAIRHFENKFAVETLICFPMHTGNEGAVF, the amyloid nucleation score amounted to 5.16.
On the same count and under the same terms, the entry for EASNCFAIRHFENKFAVETLICFPQGLKRCSYIF is “inactive”; for EASNCFAIRHFENKFAVETLICFPSTPVRMYRCS it is “inactive”; for EASNCFAIRHFENKFAVETLICFPTMNVWEGVVT it is 6.32.
On the same count and under the same terms, for EASNCFAIRHFENKFAVETLICFPVALCRFTSSY the value was “inactive”; for EASNCFAIRHFENKFAVETLICFQ, 5.2; for EASNCFAIRHFENKFAVETLICFQICNGPSIRAW, 6.3.
On the same count and under the same terms, for EASNCFAIRHFENKFAVETLICFQIKTFSRVQYE the value was “inactive”; for EASNCFAIRHFENKFAVETLICFQMEYSLLTFDP, “inactive”; for EASNCFAIRHFENKFAVETLICFQNCRRSETWER, 5.14.
Take EASNCFAIRHFENKFAVETLICFQRPVYYFSCIA: the amyloid nucleation score entry was “inactive”.
Still for that read-out and setting: the entry for EASNCFAIRHFENKFAVETLICFQSTWYALHYAY is “inactive”; for EASNCFAIRHFENKFAVETLICFQVSLALESYC it is “inactive”.
As for EASNCFAIRHFENKFAVETLICFRAEI, the amyloid nucleation score entry was “inactive”.
In the case of EASNCFAIRHFENKFAVETLICFRFPTRGLSISQ, the amyloid nucleation score result is “inactive”.
Sequence EASNCFAIRHFENKFAVETLICFRGMS yielded an amyloid nucleation score of 1.74.
Regarding EASNCFAIRHFENKFAVETLICFRGNHNCSCGVN, the amyloid nucleation score was 1.6.
The sequence EASNCFAIRHFENKFAVETLICFRHAFYADNSVI had an amyloid nucleation score of 1.65.

Staying with this data set, now noted: random library (experiment): 3.
With EASNCFAIRHFENKFAVETLICFNVVLIGYIVKW, the amyloid nucleation score entry was “inactive”.
Regarding EASNCFAIRHFENKFAVETLICFPGKSNVQYREQ, the amyloid nucleation score came out at 3.78.
In turn, EASNCFAIRHFENKFAVETLICFPHDFRSDVGAA had an amyloid nucleation score of 0.721.
The sequence EASNCFAIRHFENKFAVETLICFPIRESFGQCSF showed an amyloid nucleation score of 6.67.
Same read-out and setting: for EASNCFAIRHFENKFAVETLICFPPVISNAQFVD the value was “inactive”; for EASNCFAIRHFENKFAVETLICFQALKPPHMCSG, “inactive”; for EASNCFAIRHFENKFAVETLICFQCAMSCLARPG, 8.25.
EASNCFAIRHFENKFAVETLICFQSSDAKRTAGL returned an amyloid nucleation score of 4.66.
The same measure, in the same setting: the entry for EASNCFAIRHFENKFAVETLICFQVHHSKVSPLK is “inactive”; for EASNCFAIRHFENKFAVETLICFRCDLFSAFLLR it is 6.28.
EASNCFAIRHFENKFAVETLICFRIDLNVSCRED yielded an amyloid nucleation score of 5.71.
